Among all 43,000 compounds or so, about 200 (0.47%) were called active. Not shown: some 12% with an inconclusive outcome. Calls follow the shape of the dose curve; as a rule, active = well fitted cell-killing curve with a large enough effect; inconclusive = small, poorly fitted or top-dose-only effect, or effect the other way; inactive = flat fitted curve, though single readings scatter. The list shows a part of the results.
Assay: Cell viability qHTS assay in S16 Pmp22-F2sN cells; also: nearly all actives have a fitted effect of over 65% in size
Conditions: S16 Pmp22-F2sN Schwann cells (luciferase reporters placed in the Pmp22 gene) viability, CellTiter-Glo, 24 h; series mostly up to 57.5 µM; activity change, negative = cytotoxicity: at the top concentration
Procedure, shortened: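 CellTiter-Glo counter-screen, qHTS, 1536-well. Cells: S16(c9) Pmp22-F2sN, 500-1,000/well in DMEM + 10% FBS. Cpd 23 nL pin transfer, 24 h, 37C/5% CO2. Read: luminescence, CCD imager.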
% is scaled to controls: 0 for no effect and ±100 for the full control effect.

| SMILES | activity change, negative = cytotoxicity |
| --- | --- |
| Cc1c(C(=O)NCCc2ccc(Cl)cc2)sc2nc3n(c(=O)c12)CCCC3 | inactive: -16.4% |
| Cc1ccccc1CN1c2ccccc2-c2nc(SCC(=O)NCc3ccccc3)ncc2S1(=O)=O | inactive: -11.1% |
| COc1cc(OC)c(OC)cc1CNc1sc2c(c1C(=O)Nc1ccccc1OC)CCC2 | inactive: 6.48% |
| O=C(Nc1ccc2nc(SCC(=O)N3CCc4ccccc43)sc2c1)c1cccc(Cl)c1 | inactive: -0.419% |
| CN(C(=O)CCS(=O)(=O)c1cc2c(cc1Cl)NC(=O)CO2)C1CCCCC1 | inactive: 18.6% |
| Cc1nncn1-c1ccc(C(=O)Nc2cc(F)ccc2F)cc1 | inactive: -5.31% |
| CCN(CC)c1ccc(NC(=O)c2sc3nc4c(cc3c2N)CN(C)CC4)cc1 | inactive: -2.83% |
| CCn1c(C(=O)N2CCCC(C(=O)N3CCN(c4cc(C)ccc4C)CC3)C2)cc2sccc21 (stereo not drawn) | inactive: -2.85% |
| COc1ccc(-n2c(=O)c3ccccc3n(CC(=O)NCCc3ccc(OC)c(OC)c3)c2=O)cc1 | inactive: -9.73% |
| Cc1ccccc1CCNC(=O)c1cc2cc(S(=O)(=O)N3CCCCC3)ccc2n1C | inactive: 5.12% |
| COc1ccc(NC(=O)c2cc3c(=O)n(Cc4cccnc4)ccc3nc2C)cc1OC | inactive: -0.0646% |
| COc1ccc(Cl)cc1NC(=O)CCCN1C(=O)C(c2ccccc2)Oc2cccnc21 (stereo not drawn) | inactive: -13.4% |
| COc1cc2c(cc1OC)C(COc1cc(C)cc(C)c1)N(C(=O)COc1ccccc1)CC2 (stereo not drawn) | inactive: 2.07% |
| COc1ccc(C)cc1NS(=O)(=O)c1cc2c3c(c1)CC(=O)N3CCC2 | inactive: -5.87% |
| COc1ccc(NC(=O)CSc2nc3nc(C)c(Cc4ccccc4Cl)c(C)n3n2)cc1OC | inactive: 6.51% |
| CCn1c(=N)c(C(=O)NC2CCCCC2)cc2c(=O)n3cc(C)ccc3nc21 | inactive: 10.2% |
| CCC1CN(C(=O)Nc2ccc(C)c(F)c2)c2ccccc2S1 (stereo not drawn) | inactive: -17.6% |
| Cc1cc2c(cc1S(=O)(=O)CCC(=O)NCCc1ccccc1)OCC(=O)N2 | inactive: -0.645% |
| CC(C)(C)C(=O)NC1(C(F)(F)F)C(=O)Nc2c1c(=O)[nH]c(=O)n2-c1ccccc1 (stereo not drawn) | inactive: 12.9% |
| CCOc1ccc(-n2nc3cc(C)c(NC(=O)c4cc(OCC)c(OCC)c(OCC)c4)cc3n2)cc1 | inactive: 1.76% |
| O=C1CN(C(=O)c2ccc(S(=O)(=O)N3CCCC3)cc2)C(c2ccccc2)c2cc(Br)ccc2N1 (stereo not drawn) | inactive: -26% |
| CCOc1ccc(-c2nnc(SCC(=O)NCc3ccccc3)o2)cc1 | inactive: 5.14% |
| Cc1ccc(NC(=O)CN2CCSc3ccc(S(=O)(=O)N4CCCC4)cc32)cc1C | inactive: -4.96% |
| COc1ccc(Cc2nc3ccccc3n2Cc2ccccc2F)cc1 | inactive: -3.83% |

| SMILES | activity change, negative = cytotoxicity |
| --- | --- |
| CC(=O)c1ccc(NC(=O)CC(c2cccs2)N2Cc3ccccc3C2=O)cc1 (stereo not drawn) | inactive: 10.5% |
| CCN(C(=O)Cn1cnc2sc(C)c(S(=O)(=O)N3CCN(c4ncccn4)CC3)c2c1=O)c1ccccc1F | inactive: 0.293% |
| CCOc1ccc(-c2cc(-c3nc(-c4ccc(OC)c(OC)c4)no3)[nH]n2)cc1 | inactive: 1.69% |
| Cc1ccccc1CSc1ncc(CO)n1Cc1ccc(F)cc1 | inactive: -0.131% |
| COc1ccc(-c2nnc(C3CCN(S(=O)(=O)c4ccc(C)c(C)c4)CC3)o2)cc1 | inactive: 3.31% |
| COc1ccc(CCNC(=O)CCc2c(C)c3cc4c(C)coc4c(C)c3oc2=O)cc1OC | inactive: 0.24% |
| CC(O)CNc1nc2c(c(=O)n(Cc3ccc(Cl)cc3)c(=O)n2C)n1C (stereo not drawn) | inactive: -20.8% |
| CCOC(=O)c1ccc(NC(=O)c2ccc(=O)n(Cc3cccc(C)c3)c2)cc1 | inactive: -9.49% |
| COc1ccc(-c2cn3cccnc3n2)cc1NC(=O)c1cc(C)cc(C)c1 | inactive: 6.71% |
| Cc1cc(Cl)ccc1OCC(=O)N(Cc1ccco1)Cc1ccco1 | inactive: -1.1% |
| CCN(c1ccccc1)c1nnc(NC(=O)Nc2ccc(Br)cc2F)s1 | inactive: 8.86% |
| O=C(Nc1ccc(Br)cc1F)N1CCC2(CC1)Oc1ccccc1C(=O)N2Cc1ccccc1F | inactive: -2.48% |
| COc1ccc(C2C(C(=O)Nc3ccc(C)cc3C)=C(C)Nc3nc4ccccc4n32)c(OC)c1 (stereo not drawn) | inactive: 8.89% |
| COc1ccc2occ(CC(=O)Nc3ccc(S(=O)(=O)Nc4nc(C)cc(C)n4)cc3)c2c1 | inactive: 1.47% |
| O=C1CSC2(C(=O)N(Cc3ccccc3)c3ccccc32)N1c1ccc(Cl)cc1 (stereo not drawn) | inactive: 5.49% |
| CCOc1ccc2c(c1)NC(c1cccs1)=NC(c1ccc(F)cc1)=N2 | inactive: -19.6% |
| COc1cccc2c1Oc1ncccc1N(C(=O)CCC(=O)NCc1ccccc1Cl)C2 | inactive: 5.83% |
| O=C(CN1C(=O)COc2ccc(S(=O)(=O)Nc3ccccc3)cc21)Nc1cccc(Cl)c1 | inactive: 4.27% |
| COC(=O)c1ccc(Cn2nnc3c(=O)[nH]c(C4CCCN(S(=O)(=O)c5cccc(Cl)c5)C4)nc32)cc1 (stereo not drawn) | inactive: -16.1% |
| CCC(C)NC(=O)C1=CC(c2ccc3c(c2)OCO3)=NS(=O)(=O)N1C (stereo not drawn) | inactive: -0.654% |
| COC(=O)c1cc(NC(=O)Cn2nc(-c3ccc(C)c(C)c3)ccc2=O)cc(C(=O)OC)c1 | inactive: -15.6% |
| CC(C)(C)c1ccc(C(=O)N2CCCCC2CCN2CCCCC2)cc1 (stereo not drawn) | inactive: -11.9% |
| Cc1ccc(OCCn2nnc3sc4c(c3c2=O)CCC(C)C4)cc1 (stereo not drawn) | inactive: 9.53% |
| CCOc1ccc(C(=O)N2CCC(c3noc(-c4ccc(S(=O)(=O)N5CCCC5)cc4)n3)CC2)cc1 | inactive: -15.3% |

— PubChem BioAssay AID1508642 (National Center for Advancing Translational Sciences (NCATS), 2021)
